“And” between values parts separate entries of the source, which are not always exact repeats. Equal entries are not always repeated. This is one part of the list. Shown are side measurements of this screen, not its main read-out; they come without a call. Most of these compounds were active or inconclusive in the main read-out, so they are no random draw. Potencies come from curve fits of mixed quality, noted in brackets.

As a reminder, the AC50 is the concentration at which the activity in the assay is half-maximal.
Tags tell the direction and shape of the fitted curve.

The nature of this assay: qHTS Assay for Lipid Storage Modulators (AID 1519). To be noted: Drosophila S3 cells, BODIPY lipid droplet/cell ratio, laser cytometry; measured here: lipid (BODIPY) channel AC50; cells loaded with oleic acid. In a few lines:
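Cells seeded at 5,000 per well were treated with compounds over a concentration series and loaded with oleic acid (400 uM, as added). Lipid droplet fluorescence (488 nm excitation, 500-530 nm channel) was read by laser-scanning cytometry and normalized to 20 uM Triacsin C.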
A general note: Quantitative high-throughput screening tests each substance at several concentrations.
With `COc1cccc(-c2nc(NCc3cccs3)c3ccccc3n2)c1`, the AC50 was 0.398 µM [rising, full curve, poor fit].

Take `COc1ccc(CNc2cc(-c3cccnc3)ncn2)c(OC)c1`: the AC50 is 1.12 µM [rising, full curve, poor fit].

On to `CN(C)c1ccc(-c2cncnc2NCCc2cnc[nH]2)cc1`, for which the AC50 is 0.631 µM [rising, full curve].

`NC[C@@H]1O[C@H](c2ccccc2)Cc2c1ccc(O)c2O`: the AC50 is 7.08 µM [rising, full curve].

As for `O=c1c(O)c(-c2cccc(O)c2)oc2ccccc12`, the AC50 is 4.47 µM [rising, full curve].

As to `CCNc1ncc2nc(C)c(=O)n(Cc3cccc(OC)c3)c2n1`, the AC50 was 0.0794 µM [rising, full curve, poor fit].

For the compound `COc1ccc(-n2c(=O)c(-c3ccc(F)cc3)nc3cncnc32)cc1`, the AC50 is 3.55 µM [rising, partial curve].

Regarding `CN(C)c1ccc(-c2cncnc2Nc2ccccc2)cc1`, the AC50 is 1.26 µM [rising, full curve].

For the compound `COc1ncc2nc(CCc3ccccc3)c(=O)n(-c3ccccc3)c2n1`, the concentration at half-maximal activity (AC50) was 2.82 µM [rising, full curve].

`Cc1ccccc1-c1nccc(NCc2cccnc2)n1`: the AC50 is 0.501 µM [rising, full curve, poor fit].

As for `N#CCCn1c(=O)c(CCc2ccccc2)nc2cnc(OCc3ccccc3)nc21`, the AC50 is 1.41 µM [rising, partial curve, poor fit].

On to `CNc1ncncc1-c1ccccc1C(F)(F)F`, for which the concentration at half-maximal activity (AC50) was 7.08 µM [rising, partial curve, poor fit].

Consider `O=c1c(-c2cccs2)nc2cncnc2n1-c1ccccc1`, for which the AC50 was 11.2 µM [rising, partial curve].

In the case of `COC(=O)C1=C(C)NC(C)=C(C(=O)OCCSc2ccccc2)[C@@H]1C`, the half-maximal activity concentration (AC50) was 1 µM [rising, full curve].

Consider `COCCn1c(=O)c(-c2ccc(F)cc2)nc2cnc(N(C)C)nc21`, for which the concentration at half-maximal activity (AC50) was 3.55 µM [rising, full curve].

For `COc1cc2c(cc1OC)C(=O)Cc1ccc3c(c1CN(C)CC2)OCO3`, the AC50 is 14.1 µM [rising, partial curve].

With `c1cncc(-c2nc(-n3ccnc3)c3ccccc3n2)c1`, the AC50 was 1.78 µM [rising, full curve, poor fit].

Regarding `Oc1ccc(/C=C\c2cc(O)cc(O)c2)cc1`, the AC50 was 14.1 µM [rising, partial curve, poor fit].

Turning to `COc1cccc(-c2ccc3ncnc(N(C)C)c3c2)c1`, the AC50 was 2.24 µM [rising, partial curve].

For the compound `COc1cc2ccc(=O)oc2c(O)c1OCC=C(C)C`, the AC50 was 35.5 µM [rising, single point].

Regarding `O=c1c(-c2cc(F)cc(F)c2)nc2cncnc2n1Cc1ccccc1Cl`, the AC50 is 1.12 µM [rising, full curve, poor fit].

For the compound `Cc1ccccc1-c1nccc(Nc2ccc(F)cc2)n1`, the AC50 was 5.01 µM [rising, partial curve].

For `CC#CCOC(=O)C1=CCCN(C)C1`, the AC50 was 15.8 µM [rising, single point].

With `COc1ccc(-c2cc(=O)c3cc(OC)ccc3o2)cc1`, the AC50 was 5.62 µM [rising, partial curve].

On to `C=C(CO)C1Cc2c(ccc3c2OC2COc4cc(OC)c(OC)cc4C2C3=O)O1` (stereo not given), for which the AC50 is 0.794 µM [falling, full curve].

For the compound `Clc1ccccc1-c1nc(NCCN2CCOCC2)c2ccccc2n1`, the AC50 is 12.6 µM [rising, partial curve, poor fit].

Turning to `c1ccc(-c2csc(-c3nc4ccccc4[nH]3)n2)cc1`, the AC50 is 0.178 µM [rising, full curve].

For the compound `CCc1ccc2c(-c3cccc(Cl)c3)nc(=O)n(CC)c2n1`, the AC50 is 0.112 µM [rising, full curve].

In the case of `O=C(O)c1cccnc1C(=O)O`, the AC50 is 17.8 µM [rising, partial curve, poor fit] and 8.91 µM [falling, partial curve].

With `CN(C)C(=O)c1ccc(-c2cncnc2-n2ccnc2)cc1`, the AC50 is 10 µM [rising, partial curve].

For the compound `O=c1c(-c2ccc(Cl)cc2)nc2cnc(Nc3ccccc3)nc2n1C[C@H]1CCCO1`, the AC50 was 1.41 µM [falling, full curve].

With `COc1ccccc1N1CCN(CCN2C(=O)CC3(CCCC3)CC2=O)CC1`, the half-maximal activity concentration (AC50) was 15.8 µM [rising, partial curve].

In the case of `Fc1ccc(Nc2nc(-c3ccoc3)nc3ccccc23)cc1`, the half-maximal activity concentration (AC50) is 0.794 µM [rising, full curve].

Turning to `COc1ccccc1-c1nc(N2CCOCC2)c2ccccc2n1`, the AC50 is 1.12 µM [rising, full curve].

Turning to `CC[N+](CC)(CC)CC(=O)Nc1c(C)cccc1C`, the AC50 was 31.6 µM [rising, partial curve, poor fit].

On to `c1ccc(Nc2nc(-c3ccoc3)nc3ccccc23)cc1`, for which the AC50 is 0.00794 µM [rising, full curve, poor fit].

As to `CC(C(=O)O)c1ccc2c(c1)[nH]c1ccc(Cl)cc12` (stereo not given), the AC50 is 25.1 µM [rising, partial curve, poor fit].

Take `CN(C)C/C=C(\c1ccc(Br)cc1)c1cccnc1`: the AC50 is 10 µM [rising, partial curve].

`N#CCCn1c(=O)c(CCc2ccccc2)nc2cnc(Oc3ccccc3)nc21`: the AC50 was 0.178 µM [rising, full curve, poor fit].

Turning to `CN(C)c1ccc(-c2nccc(NCc3cccs3)n2)cc1`, the AC50 is 39.8 µM [falling, single point].

The values are drawn from PubChem BioAssay (NCATS).
